About 14,000 (4.5%) of roughly 310,000 compounds showed an effect of 50% or more. Effects have a minus sign here. This is one part of the list.
These compounds were tested against human ether-à-go-go-related gene (hERG) potassium channel (human, UniProt Q12809) (assay: primary screen, population patch clamp on CHO cells stably expressing hERG).
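Note: peak tail current of the secondary pulse compared with the same well before compound.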

Sequence of human ether-à-go-go-related gene (hERG) potassium channel (Q12809 whole entry, looked up): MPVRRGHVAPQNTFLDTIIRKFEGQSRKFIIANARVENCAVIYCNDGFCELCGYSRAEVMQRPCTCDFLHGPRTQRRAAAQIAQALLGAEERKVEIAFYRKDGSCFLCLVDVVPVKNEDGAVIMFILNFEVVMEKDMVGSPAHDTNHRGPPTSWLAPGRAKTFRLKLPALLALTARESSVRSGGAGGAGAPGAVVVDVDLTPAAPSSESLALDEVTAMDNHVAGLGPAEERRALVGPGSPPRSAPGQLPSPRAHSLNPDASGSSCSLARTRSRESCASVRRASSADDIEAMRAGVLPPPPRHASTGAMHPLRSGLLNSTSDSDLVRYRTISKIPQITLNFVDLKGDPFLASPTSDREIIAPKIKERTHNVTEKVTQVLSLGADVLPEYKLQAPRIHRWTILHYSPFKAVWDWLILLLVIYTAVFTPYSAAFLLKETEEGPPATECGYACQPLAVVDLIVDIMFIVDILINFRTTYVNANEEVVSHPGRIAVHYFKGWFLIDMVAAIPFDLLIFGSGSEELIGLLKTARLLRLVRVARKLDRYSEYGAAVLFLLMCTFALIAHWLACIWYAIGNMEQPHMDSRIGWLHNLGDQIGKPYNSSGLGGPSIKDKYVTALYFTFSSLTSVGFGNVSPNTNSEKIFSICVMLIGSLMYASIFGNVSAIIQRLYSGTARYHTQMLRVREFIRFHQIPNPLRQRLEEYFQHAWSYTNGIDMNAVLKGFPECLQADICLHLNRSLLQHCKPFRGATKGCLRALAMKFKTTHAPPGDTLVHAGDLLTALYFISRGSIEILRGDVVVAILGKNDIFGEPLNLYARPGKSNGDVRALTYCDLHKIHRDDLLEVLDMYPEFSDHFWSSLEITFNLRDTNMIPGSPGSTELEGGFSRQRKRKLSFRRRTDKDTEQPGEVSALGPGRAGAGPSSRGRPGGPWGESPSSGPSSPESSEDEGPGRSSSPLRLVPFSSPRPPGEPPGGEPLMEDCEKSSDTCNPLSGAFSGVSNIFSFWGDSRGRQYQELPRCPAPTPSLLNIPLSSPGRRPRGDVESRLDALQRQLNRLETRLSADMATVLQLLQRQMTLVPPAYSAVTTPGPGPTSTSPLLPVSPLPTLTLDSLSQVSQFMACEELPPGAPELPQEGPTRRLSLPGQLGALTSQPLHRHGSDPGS

| Compound | hERG current change (%, negative = inhibition) at 10uM [%] |
| --- | --- |
| O=C(N/N=C/c1ccc(F)cc1)c1c(O)c2ccccc2[nH]c1=O | -6.28 |
| O=C(COC(=O)c1cn(-c2ccccc2)nc1-c1cccs1)NC1CC1 | 22.1 |
| Cc1c(O)c(C)c2c(c1O)C(=O)C[C@@H](c1ccccc1)O2 | 17.7 |
| COCCCN1C(=O)C2C(C(=O)Nc3cccc(Cl)c3)C3C=CC2(O3)C1C(=O)NC1CCCCC1 (centres unmarked) | -6.47 |
| CN(CC(=O)N(C)CC(=O)Nc1c(Cl)cccc1Cl)Cc1ccc(Br)s1 | -39.7 |
| Cc1cccc2cc(C#N)c(NCCCNS(=O)(=O)c3ccc(Cl)cc3)nc12 | 7.31 |
| CCn1c(SCC(=O)Nc2cc(C)c(Cl)cc2OC)nnc1-c1ccco1 | -4.93 |
| CC(=O)c1cn(CCCCCCCn2cc(C(C)=O)c(=O)[nH]c2=O)c(=O)[nH]c1=O | 5.91 |
| Cc1cccc(-n2ncc3c(N)ncnc32)c1 | -5.94 |
| COc1ccc(NC(=O)C(c2ccccc2)c2ccccc2)cn1 | -0.151 |
| CCCc1nc(SCC(=O)Nc2nnc(CC)s2)c2c(=O)n(C)c(=O)n(C)c2n1 | 9.61 |
| Cc1cccc2sc(N(CCN(C)C)C(=O)C3CCN(S(=O)(=O)c4cccs4)CC3)nc12.Cl | -10.8 |
| CCN1CCN(C(=O)/C=C/c2ccc(OC)cc2)CC1 | -19.1 |
| Cc1ccc(CNc2oc(-c3ccco3)nc2C#N)cc1 | -5.42 |
| CCCn1c(=O)c(C(=O)NNC(=O)c2ccccc2Cl)c(O)c2ccccc21 | -5.42 |
| O=S(=O)(Nc1nccs1)c1ccc2c(c1)OCCO2 | 1.62 |
| CCN(CC)c1ccc2c(Nc3ccccc3)c(C=O)c(=O)oc2c1 | 14.1 |
| Cc1nnc(Sc2nc3c(c(=O)n(C)c(=O)n3C)n2Cc2ccccc2Cl)s1 | -0.861 |
| CCC(C)NC(=O)c1ccc(C)c(NC(=O)C2=C(C)OCCS2)c1 (centres unmarked) | -12.9 |
| O=C(Nc1ccc(S(=O)(=O)Nc2nccs2)cc1)c1nn(-c2ccc(F)cc2)ccc1=O | -11 |
| O=C(O)C1CCCCC1C(=O)NCCC(c1ccccc1)c1ccccc1 (centres unmarked) | 14.1 |
| O=[N+]([O-])c1c(Nc2ccc(O)cc2)cc(Cl)c2nonc12 | -26.1 |
| CCNc1nc(NC(C)(C)C)nc(SC)n1 | -22.7 |

| Compound | hERG current change (%, negative = inhibition) at 10uM [%] |
| --- | --- |
| CC(C(O)c1ccc(O)cc1)N1CCC(Cc2ccccc2)CC1.O.O=C(O)C(O)C(O)C(=O)O (centres unmarked) | -65.4 |
| Cc1ccc(/C=N/NC(=O)C(C)NC(=O)c2ccccc2)cc1 (centres unmarked) | 10.2 |
| CCn1c(COc2ccccc2OC)nc2ccccc21 | 2.28 |
| CSCCC(NC(=O)COc1ccccc1)C(=O)N1CCC(C(N)=O)CC1 (centres unmarked) | 9.8 |
| Cc1ccc2c(c1)CCCN2CC(=O)Nc1cc(S(=O)(=O)N2CCCC2)ccc1Cl | -17.3 |
| O=C(NCCCO)/C(=C/c1ccco1)NC(=O)c1ccc(Br)o1 | 16.7 |
| c1ccc(Nc2ncnc3sc4c(c23)CCC4)cc1 | 0.132 |
| O=C(CNC(=O)c1ccccc1C(F)(F)F)N/N=C/c1cccs1 | 2.99 |
| Cc1cccc(NCCC#N)c1 | 17.3 |
| CCn1c(SCC(=O)Nc2cc(NC(C)=O)ccc2OC)nnc1-c1cccnc1 | 5.99 |
| O=c1c2c3c(sc2nc2n1CCCS2)CCCC3 | 3.04 |
| CC1=CCC(/C=N\Nc2nnc3c(n2)[nH]c2ccccc23)CC1 (centres unmarked) | -5.57 |
| COc1ccccc1NC(=O)c1cc(C)nc2ccccc12 | 0.683 |
| O=C(NCCCn1ccnc1)C(F)(F)C(F)(F)C(=O)NCCCn1ccnc1 | 8.19 |
| C=CCN(Cc1nc(-c2cc(OC)ccc2OC)oc1C)C1CCS(=O)(=O)C1 (centres unmarked) | 8.4 |
| COc1ccc(C(=O)c2sc(NC(C)C)nc2N)cc1OC | -1.48 |
| O=C1C2CCCN2C(c2ccc(Cl)cc2)N1c1ccccn1 (centres unmarked) | -3.03 |
| CN(C)S(=O)(=O)c1ccc(-n2cccc2)cc1 | -16.8 |
| C=CCn1c2ccccc2c2nnc(SCC(=O)O)nc21 | 28.6 |
| CN1CCN(C(=O)C2CCN(S(=O)(=O)c3ccc4c(c3)oc(=O)n4C)CC2)CC1 | -8.14 |
| COc1cccc(N2C(=O)NC(=O)/C(=C\c3cn(C)c4ccccc34)C2=O)c1 | 16.2 |
| Cl.OCCN1CCN(CC/C=C2/c3ccccc3Sc3ccc(C(F)(F)F)cc32)CC1 | -47.1 |
| CCOC(=O)NC(=O)CSc1ccc(S(=O)(=O)N(C)C2CCCCC2)cn1 | -39.3 |

| Compound | hERG current change (%, negative = inhibition) at 10uM [%] |
| --- | --- |
| CCOc1ccc(NC(=O)C(=O)NCCCn2ccnc2)cc1 | -1.54 |
| Cl.OCCNc1nc(Nc2ccc(Cl)c(Cl)c2)nc2ccccc12 | 14.5 |
| CC(=O)NC1=NN(C(C)=O)C(C)(c2ccc(Cl)s2)S1 (centres unmarked) | -20.6 |
| COCC1CCN(Cc2nc(-c3ccc4c(c3)OCO4)no2)C1 (centres unmarked) | -17.1 |
| COc1ccc(CCN2C(=O)C3CC=C(C)CC3C2=O)cc1OC (centres unmarked) | -16.2 |
| CC1CC(C)(C)NC(=S)N1CCC(=O)N1CCc2ccccc21 (centres unmarked) | 7.46 |
| COc1cc(NS(=O)(=O)c2ccc(N)cc2)ncn1 | 35.7 |
| CCOc1ccc2oc(C(=O)N(CC)CC(=O)Nc3c(F)cccc3F)c(C)c2c1 | -1.01 |
| COCCN1C(=O)/C(=C/c2cc3c(cc2Br)OCO3)NC1=S | 12.6 |
| CS(=O)(=O)N1CCC(C(=O)Nc2ccc(F)c(Cl)c2)CC1 | 7.17 |
| CC12CCC(C(=O)NCc3ccccc3)(OC1=O)C2(C)C (centres unmarked) | -1.62 |
| COc1ccc(N2CCN(C(=O)c3cccc(Cn4cc(Cl)cn4)c3)CC2)cc1 | -48 |
| COc1ccc(-n2c(C)cc(=O)[nH]c2=O)cc1 | 24.6 |
| CC(=O)C1=C(O)C(=O)N(Cc2ccccc2)C1c1cccc([N+](=O)[O-])c1 (centres unmarked) | 12.1 |
| COc1ccc(S(=O)(=O)N2CCN(C(=O)COc3ccc(C)c(C)c3)CC2)cc1OC | -37.1 |
| CCCCNC(=O)CSc1nc(O)c(Cc2ccc(OC)cc2)c(=O)[nH]1 | 6.28 |
| CCOc1ccc(C(=O)NN2C(=S)NC(C)(C)C=C2C)cc1 | 15.1 |
| CCOC(=O)c1c(NC(=S)N2CCOCC2)sc(C)c1C | 15.6 |
| Cc1nc2sc3c(c2c(=O)[nH]1)CCC3 | 12.1 |
| Cc1nc(NCCc2ccccc2)c2oc3ccccc3c2n1 | -3.13 |
| COCCn1c(SC)nnc1-c1c[nH]c2ccccc12 | 17.1 |
| O=C(N/C(=C/c1ccco1)C(=O)N1CCOCC1)c1cccs1 | 1.91 |
| CC(C)c1nnc(NC(=O)CCC(=O)N2CCN(c3ccccc3F)CC2)s1 | 7.7 |

| Compound | hERG current change (%, negative = inhibition) at 10uM [%] |
| --- | --- |
| CC(C)(C)c1ccc(NC(=O)COc2ccc(-n3ccnc3)cc2)cc1 | -56.5 |
| CCN(CC)c1ccc(C=C(c2nnnn2-c2ccccc2)c2nnnn2-c2ccccc2)cc1 | 1.36 |
| Cc1ccc2c(c1)Oc1ccc([N+](=O)[O-])cc1C(=O)N2 | -18.4 |
| Cc1ccc(S(=O)(=O)Nc2ccc(NC(=O)Nc3cccc(C(F)(F)F)c3)cc2)cc1 | 15.4 |
| CCOC(=O)CSc1nc(N)c(C#N)c(-c2cccs2)c1C#N | 15.1 |
| COc1ccc(S(=O)(=O)N2CCN(C3CCCC(C)C3)CC2)cc1.O=C(O)C(=O)O (centres unmarked) | -16.7 |
| O=C(Nc1cc(Cl)cc(Cl)c1)c1coc(=O)c(Br)c1 | -1.63 |
| CCOC(=O)CN(C(=O)CNC(=O)c1ccco1)C(C(=O)NC1CCCCC1)c1cccnc1 (centres unmarked) | 12.2 |
| O=C1COc2ccc(S(=O)(=O)N3CCC(C(=O)NCc4ccccc4)CC3)cc2N1 | 5.81 |
| CN(C(=O)CC1C(=O)NCCN1Cc1ccccc1F)C1CCOCC1 (centres unmarked) | 11.1 |
| Cc1c(C(=O)NNS(=O)(=O)c2ccccc2)sc(=S)n1C | -2.34 |
| COC(=O)c1ccccc1S(=O)(=O)N1CCC(C(=O)OCc2cccc(OC)c2OC)CC1 | -13.5 |
| CCc1ccc(OCC(=O)NC(NC(=S)Nc2ccccc2C)C(Cl)(Cl)Cl)cc1 (centres unmarked) | 0.311 |
| CC(C)C[C@H](NC(=O)Nc1ccc(S(N)(=O)=O)cc1)C(=O)O | 13 |
| CCn1cc(-c2n[nH]c(=S)n2-c2ccc(C)cc2Br)c(=O)c2ccc(C)nc21 | 25.4 |
| CCOc1nc(C)ccc1-c1noc(CC)n1 | 15.6 |
| Cc1cc(C)cc(OCC(=O)OCC(=O)N2CC(=O)Nc3ccccc32)c1 | -9.41 |
| COC(=O)C(Nc1nccs1)(OC)C(F)(F)F (centres unmarked) | 5.34 |
| O=C1/C(=C/c2cccs2)CCc2ccccc21 | -11.9 |
| CC(=O)NS(=O)(=O)c1ccc(NC(=O)c2ccc(-n3nc(C)cc3C)cc2)cc1 | 3.33 |
